# From PubChem BioAssay AID588855 (National Center for Advancing Translational Sciences (NCATS), 2011)
# About 5,000 (1.2%) of roughly 410,000 compounds were called active. The inconclusive results got no clear call from the source; some entries with a clear call stand among them for comparison. The call rests on the fitted dose curve; in most records, active means well fitted inhibition curve with a large enough effect; inconclusive means small, poorly fitted or top-dose-only effect; inactive means no such curve, though single readings can be large or run the other way. Potencies beside an inconclusive call are fits to weak or partial responses and may not hold up.
# Test: qHTS for Inhibitors of TGF-b; further: nearly all actives have a fitted effect of over 65% in size
# Conditions: HepG2 CAGA-GFP TGF-b/SMAD3 reporter, GFP fluorescence, 18 h, TGF-beta stimulated, 500 pg/mL final; series mostly up to 46.1 µM
# Outline: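 Smad-responsive CAGA-GFP expression was quantified in HEPG2 cells exposed to compounds and 500 pg/mL final TGF-beta for 18 h at 37 degrees C; unstimulated wells defined full inhibition.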
# Potency means the concentration at half of the fitted maximal effect; tags describe the fitted curve by direction and shape.
row,SMILES,Potency
1,CCOC(=O)c1ccccc1NC(=O)Cn1c(=O)n(CCC(=O)N2CCc3ccccc3C2)c(=O)c2ccccc21,"inconclusive: 6.31 µM [inhibitor, single point]"
2,COc1ccccc1-c1nnc(C2CCN(C(=O)c3cccc(Cl)c3)CC2)o1,"inconclusive: 11.2 µM [inhibitor, single point]"
3,CCOC(=O)C1(CC2CCCCO2)CCN(Cc2nc3ccccc3nc2C)CC1 (stereo not given),inactive
4,COc1ccc(/C=C/C(=O)NCc2cccnc2)cc1,"inconclusive: 11.2 µM [inhibitor, single point]"
5,Cc1cc(C)nc(Nc2ccc(N3CCCC3)cc2)n1,"inconclusive: 35.5 µM [inhibitor, single point]"
6,Cc1[nH]nc(-c2ccc(OCc3cnn(-c4ccccc4)c3)cc2O)c1Oc1ccccc1F,"inconclusive: 7.94 µM [inhibitor, partial curve, poor fit]"
7,O=C(C1=C[C@H](c2coc3ccccc3c2=O)C[C@H](OCCCCO)O1)N1CCN(Cc2ccc3c(c2)OCO3)CC1,"inconclusive: 7.08 µM [inhibitor, partial curve, poor fit]"
8,Cn1c(SCC(=O)N2CC(=O)Nc3ccccc32)nc2ccccc2c1=O,inactive
9,O=C(COC(=O)/C=C/c1ccc2ccccc2n1)NNC(=O)c1ccccc1,"inconclusive: 20 µM [inhibitor, single point]"
10,COc1ccccc1Cc1c(-c2ccc(OC)c(OC)c2)nc2ccc(C)cn12,"inconclusive: 17.8 µM [inhibitor, single point]"
11,COc1ccc(S(=O)(=O)N(Cc2ccccc2)c2ccccc2C(=O)Nc2ccccc2C(=O)NCc2ccco2)cc1,"inconclusive: 20 µM [inhibitor, single point]"
12,O=C(COc1ccccc1Cl)NNC(=O)C1CCCO1 (stereo not given),"inconclusive: 5.62 µM [inhibitor, single point]"
13,O=C(Nc1ccc(N2CCN(c3ccc(C(F)(F)F)cn3)CC2)nc1)c1cccs1,"inconclusive: 3.55 µM [inhibitor, single point]"
14,c1ccc(C2=Nc3ccccc3NC(c3ccccc3)C2)cc1 (stereo not given),inactive
15,CCN(CC)C1Oc2cc3c(cc2C(c2cc(OC)c(OC)c(OC)c2)C1C)OCO3 (stereo not given),"inconclusive: 15.8 µM [inhibitor, partial curve, poor fit]"
16,N=C1C(c2nc3ccccc3c(=O)[nH]2)=C(O)CN1CCc1ccccc1,inactive
17,O=C(c1ccccc1)C1CN(Cc2ccccc2)CCC1(O)c1ccccc1 (stereo not given),"inconclusive: 22.4 µM [inhibitor, single point]"
18,Cc1ccc(/C=N/NC(=O)c2n[nH]c3c2CCCC3)cc1,"inconclusive: 0.562 µM [inhibitor, full curve, poor fit]"
19,CCCn1c(=N)n(CC(O)COc2cccc(C)c2)c2ccccc21 (stereo not given),inactive
20,CCn1c(SCC(=O)c2ccc3c(c2)Cc2ccccc2-3)nnc1-c1ccc(N)cc1,"inconclusive: 35.5 µM [inhibitor, single point]"
21,COc1ccc(-n2nnnc2-c2cccc(OC)c2)cc1,inactive
22,CCN(C(=O)CSc1ncn[nH]1)c1cccc2ccccc12,"inconclusive: 6.31 µM [inhibitor, single point]"

row,SMILES,Potency
1,CN(Cc1ccccc1)C(=O)c1[nH]cnc1C(=O)N[C@@H](CCCCNC(=O)OC(C)(C)C)C(=O)OC(C)(C)C,inactive
2,COc1ccc(CC2SC(=Nc3ccc(F)cc3)NC2=O)cc1 (stereo not given),inactive
3,Cc1ccc(C)c(Nc2nn3c(=O)c4ccc(C(=O)NCCC5=CCCCC5)cc4nc3s2)c1,"inconclusive: 5.62 µM [inhibitor, single point]"
4,O=C(Cc1cccs1)Nc1nc(-c2ccc(F)cc2F)cs1,"inconclusive: 17.8 µM [inhibitor, single point]"
5,COc1ccc(OC)c(S(=O)(=O)Nc2cccc3ccc(O)cc23)c1,"inconclusive: 7.94 µM [inhibitor, partial curve]"
6,COc1ccc(-c2nc3scc(CCNS(=O)(=O)c4c(C)noc4C)n3n2)cc1OC,"inconclusive: 10 µM [inhibitor, partial curve]"
7,CCOC(=O)N1CCN(S(=O)(=O)c2ccc3c(c2)SC(C)C(=O)N3)CC1 (stereo not given),"inconclusive: 10 µM [inhibitor, single point]"
8,COc1cccc(CNC(=O)C2CCCN(c3ncnc4c3nc3n4CCCCC3)C2)c1 (stereo not given),"inconclusive: 10 µM [inhibitor, partial curve, poor fit]"
9,Cc1cccn2c(=O)cc(CSc3nnc(NC(=O)COc4ccc(F)cc4)s3)nc12,inactive
10,Cc1cccc(N(CC(N)=O)C2SC(=O)N(c3ccccc3)C2=O)c1 (stereo not given),"inconclusive: 10 µM [inhibitor, partial curve, poor fit]"
11,Cc1ccccc1Cc1c(C)nc2nc(SCC(=O)NCCCN3CCCCC3)nn2c1C,inactive
12,CC(C)c1ccccc1NC(=S)NC(=O)C1CCCCC1,"inconclusive: 22.4 µM [inhibitor, single point]"
13,Cc1ccc(C)c(S(=O)(=O)Nc2ccc3scnc3c2)c1,inactive
14,CCSc1ncc(/C=N/Nc2ccc([N+](=O)[O-])cc2)n1C,"inconclusive: 11.2 µM [inhibitor, partial curve, poor fit]"
15,COc1cc(/C=C/C(=O)OCC(=O)Nc2ccc(Cl)cn2)ccc1O,inactive
16,COc1ccc(C(C)NS(=O)(=O)Cc2ccccc2)cc1 (stereo not given),inactive
17,CC(=O)N1c2ccc(S(=O)(=O)NCC3CCC(C(=O)Nc4cc(C)ccn4)CC3)cc2CC1C (stereo not given),"inconclusive: 25.1 µM [inhibitor, single point]"
18,O=C(CCN1CCN(Cc2ccccc2)CC1)NNC(=O)Cc1ccc(Cl)c(Cl)c1,"inconclusive: 11.2 µM [inhibitor, partial curve, poor fit]"
19,Cc1ccc(CN2CCN(CCCn3cnc4c(OCc5ccccc5)ncnc43)CC2)cc1,"inconclusive: 35.5 µM [inhibitor, single point]"
20,O=C(Nc1cccc(O)c1)c1cc(-c2ccc3c(c2)OCO3)on1,inactive
21,CCOC(=O)c1c(C)oc2ncnc(N3CCN(c4ccc(C)cc4C)CC3)c12,"inconclusive: 4.47 µM [inhibitor, full curve, poor fit]"
22,Cc1nc(NCc2ccccc2)c(C(N)=O)c2c1COC(C)(C)C2,"inconclusive: 6.31 µM [inhibitor, single point]"

row,SMILES,Potency
1,Clc1ccc(-c2nnc3n2CCCCC3)cc1,inactive
2,CCc1ccc2c(c1)C(c1ccncc1)=NNC(c1ccccc1)=N2,"inconclusive: 35.5 µM [inhibitor, single point]"
3,O=C(Nc1ccc(Br)cc1F)c1cc(S(=O)(=O)NC2CCCC2)ccc1F,"inconclusive: 15.8 µM [inhibitor, single point]"
4,CCN1CCN(Cc2ccc(NC(=O)c3ccc(C)c(NC(=O)c4csc(-c5ccncc5)n4)c3)cc2C(F)(F)F)CC1,"inconclusive: 35.5 µM [inhibitor, single point]"
5,CCCOc1ccc(C(=O)Nc2ccc3oc(-c4ccc5ccccc5c4)nc3c2)cc1,inactive
6,CCCC(OC(=O)CC1Sc2ccccc2NC1=O)C(=O)NCc1ccco1 (stereo not given),"inconclusive: 35.5 µM [inhibitor, single point]"
7,CC(=O)c1cccc(NC(=O)CSc2nnc3ccc(-c4ccc(F)cc4)nn23)c1,"inconclusive: 35.5 µM [inhibitor, single point]"
8,CC(C)=C[C@H]1C[C@H](C)[C@H]2CC[C@H](C)c3c(O[C@@H]4OC[C@@H](O)[C@H](O)C4O)c(O)c(C)c1c32 (stereo not given in full),"inconclusive: 35.5 µM [inhibitor, single point]"
9,O=C(Nc1cc(S(=O)(=O)N2CCCCC2)ccc1O)c1ccccc1NS(=O)(=O)c1ccc(F)c(F)c1,"inconclusive: 17.8 µM [inhibitor, partial curve, poor fit]"
10,CC(C)[C@H](NC(=O)c1ccc(C(C)(C)C)cc1)C(=O)N1CCN(Cc2ccc3c(c2)OCO3)CC1,"inconclusive: 35.5 µM [inhibitor, single point]"
11,COc1ccc2c(c1)C(C)=CC(C)(C)N2S(=O)(=O)c1ccc(NC(C)=O)cc1,"inconclusive: 12.6 µM [inhibitor, partial curve]"
12,CCOc1ccc(CCNC(=O)c2ccc(CS(=O)Cc3ccc(Cl)cc3)o2)cc1OCC (stereo not given),inactive
13,CCCCC(=O)OCC(=O)C1(O)Cc2c(O)c3c(c(O)c2C(OC2CC(NC(=O)C(F)(F)F)C(O)C(C)O2)C1)C(=O)c1c(OC)cccc1C3=O (stereo not given),"inconclusive: 35.5 µM [inhibitor, single point]"
14,Cc1ccc(NC(=O)Cc2nc(COC(=O)c3c(F)cccc3Cl)cs2)cc1,inactive
15,COc1cc(Cl)c(C)cc1NC(=O)CN(C)Cc1cccc(OC)c1OC,"inconclusive: 8.91 µM [inhibitor, partial curve]"
16,CC(C)(C)c1nc(SCC(=O)c2ccccc2)c2ccccc2n1,"inconclusive: 28.2 µM [inhibitor, single point]"
17,CC(=O)C1(O)CCC2C3CC(C)C4=CC(=O)C=CC4(C)C3(F)C(O)CC21C (stereo not given),"inconclusive: 0.708 µM [inhibitor, full curve, poor fit]"
18,Cn1c(SCc2ccc(C#N)cc2)nnc1-c1ccncc1,inactive
19,Cc1cc(C(=O)CN2C(=O)NC3(CCCCC3)C2=O)c(C)n1-c1ccc2c(c1)OCO2,inactive
20,NNC(=S)Nc1c(Br)cc(F)cc1Br,inactive
21,S=c1[nH]nc(COc2cccc(Cl)c2)n1Cc1ccccc1,"inconclusive: 25.1 µM [inhibitor, single point]"
